The supplement of paper PMC6206098
± gives the uncertainty stated by the source. Shown are siRNA guide strands that differ only in the seed, positions 2 to 7.

Legend:
3LL = test: cell viability relative to siNT1 control; higher = less toxic; conditions: concentration: 10 nM; 96 h; Mus musculus;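 further: Luminescence-based viability of cells reverse transfected in 384-well plates with lipid-complexed siRNAs built on a non-toxic 19mer backbone whose passenger strand carries 2′-O-methyl groups at positions 1 and 2, triplicates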
M565 = test: cell viability relative to lipid-only control; HeyA8 human ovarian and H460 human lung cancer; M565 mouse liver and 3LL mouse lung cancer; siNT1 is a non-toxic control siRNA; higher = less toxic; conditions: concentration: 10 nM; 96 h; Mus musculus
Method: (§1)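 Arrayed screen of 4096 siRNA duplexes, each carrying one of all possible 6mer seeds at guide-strand positions 2-7 in a fixed neutral 19mer scaffold (constant flanks: U at position 1, then ACAUGUAAACCA, plus a 3' AA overhang). The passenger strand is 2'-O-methylated at positions 1-2 so only the guide strand loads into RISC. Duplexes were reverse-transfected at 10 nM with RNAiMAX in triplicate in 384-well plates; viability was read by CellTiter-Glo ATP content 96 h after transfection. Values are % viability normalised to lipid-only wells (HeyA8, H460, M565) or to siNT1 (3LL).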

HeyA8 = test: as above; conditions: concentration: 10 nM; 96 h; Homo sapiens
Method: as §1

H460 = test: as above; conditions: concentration: 10 nM; 96 h; Homo sapiens
Method: as §1
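Wherever cell viability relative to lipid-only control is given: reverse lipid transfection in 384-well plates, in triplicate, of duplexes on a non-toxic 19mer backbone with passenger strand 2′-O-methylated at positions 1 and 2, luminescence viability read-out.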

Sequence | cell viability (3LL) | cell viability (M565) | cell viability (HeyA8) | cell viability (H460)
UCCCACGACAUGUAAACCAAA | 111 ± 28% | 57.1 ± 9.7% | 100 ± 14% | 53 ± 10%
UCCCACUACAUGUAAACCAAA | 99.3 ± 15% | 58.8 ± 14% | 89.8 ± 12% | 56.9 ± 4.3%
UCCCAGAACAUGUAAACCAAA | 103 ± 34% | 57.8 ± 4.3% | 87.4 ± 6.5% | 52 ± 8.9%
UCCCAGCACAUGUAAACCAAA | 48.1 ± 12% | 51 ± 5.6% | 50.8 ± 7.2% | 41.3 ± 4.1%
UCCCAGGACAUGUAAACCAAA | 89.3 ± 21% | 26.7 ± 3.8% | 82.1 ± 3.3% | 54.5 ± 3.3%
UCCCAGUACAUGUAAACCAAA | 78 ± 18% | 25 ± 9.5% | 65.1 ± 6% | 65.5 ± 0.81%
UCCCAUAACAUGUAAACCAAA | 108 ± 24% | 70 ± 14% | 93.5 ± 3.8% | 27.6 ± 2.9%
UCCCAUCACAUGUAAACCAAA | 45.5 ± 9.7% | 20.5 ± 5.7% | 62.6 ± 5.5% | 45.4 ± 7.4%
UCCCAUGACAUGUAAACCAAA | 101 ± 23% | 58.6 ± 9% | 86.6 ± 1.6% | 41.8 ± 7.7%
UCCCAUUACAUGUAAACCAAA | 106 ± 30% | 65.4 ± 15% | 80.6 ± 8.4% | 42.9 ± 8.5%
UCCCCAAACAUGUAAACCAAA | 88.7 ± 24% | 50.3 ± 8.4% | 87.1 ± 0.91% | 87.3 ± 14%
UCCCCACACAUGUAAACCAAA | 91.8 ± 30% | 46.2 ± 7.9% | 83.3 ± 2.5% | 73.3 ± 8.9%
UCCCCAGACAUGUAAACCAAA | 109 ± 19% | 51.7 ± 13% | 79.3 ± 4.2% | 95.1 ± 11%
UCCCCAUACAUGUAAACCAAA | 111 ± 26% | 58.5 ± 28% | 78.5 ± 1.9% | 76.2 ± 7.5%
UCCCCCAACAUGUAAACCAAA | 106 ± 19% | 79.5 ± 12% | 74.4 ± 4.2% | 86.3 ± 13%
UCCCCCCACAUGUAAACCAAA | 29.5 ± 7.6% | 23.2 ± 4.1% | 22.5 ± 3% | 20.3 ± 3.8%
UCCCCCGACAUGUAAACCAAA | 99.2 ± 13% | 57.7 ± 11% | 84.2 ± 2.4% | 85.6 ± 17%
UCCCCCUACAUGUAAACCAAA | 74.4 ± 17% | 32.1 ± 3.4% | 52.8 ± 7.8% | 62.2 ± 5.4%
UCCCCGAACAUGUAAACCAAA | 108 ± 24% | 61.5 ± 11% | 91.3 ± 8.2% | 65.2 ± 8.5%

Sequence | cell viability (3LL) | cell viability (M565) | cell viability (HeyA8) | cell viability (H460)
UCCCCGCACAUGUAAACCAAA | 65.7 ± 13% | 41 ± 15% | 58.8 ± 5.2% | 51.4 ± 4.3%
UCCCCGGACAUGUAAACCAAA | 106 ± 7.4% | 78.5 ± 20% | 60.6 ± 2.8% | 65.5 ± 7.6%
UCCCCGUACAUGUAAACCAAA | 75.1 ± 17% | 41.7 ± 15% | 82.7 ± 4.6% | 71.5 ± 14%
UCCCCUAACAUGUAAACCAAA | 108 ± 20% | 67.4 ± 9.3% | 97.7 ± 7.7% | 92.3 ± 17%
UCCCCUCACAUGUAAACCAAA | 95.3 ± 13% | 38.6 ± 12% | 54 ± 0.98% | 47.9 ± 2.8%
UCCCCUGACAUGUAAACCAAA | 110 ± 16% | 71.5 ± 8.5% | 81.7 ± 6.8% | 71 ± 5.1%
UCCCCUUACAUGUAAACCAAA | 111 ± 23% | 80.4 ± 14% | 80.4 ± 7.5% | 87.9 ± 9.6%
UCCCGAAACAUGUAAACCAAA | 109 ± 18% | 90 ± 35% | 94.6 ± 12% | 79.3 ± 16%
UCCCGACACAUGUAAACCAAA | 56.5 ± 12% | 59 ± 16% | 68.3 ± 7.8% | 72.3 ± 6.1%
UCCCGAGACAUGUAAACCAAA | 110 ± 18% | 63.4 ± 12% | 94.5 ± 1.1% | 79.7 ± 4.7%
UCCCGAUACAUGUAAACCAAA | 106 ± 22% | 69.2 ± 7.1% | 69.8 ± 9.3% | 83.1 ± 12%
UCCCGCAACAUGUAAACCAAA | 107 ± 17% | 67.4 ± 7.8% | 83.9 ± 6.9% | 80.2 ± 12%
UCCCGCCACAUGUAAACCAAA | 33.3 ± 6.5% | 12.4 ± 3.6% | 9.59 ± 1.1% | 47.6 ± 2%
UCCCGCGACAUGUAAACCAAA | 102 ± 15% | 74.3 ± 19% | 82.3 ± 5.1% | 84.9 ± 16%
UCCCGCUACAUGUAAACCAAA | 93.6 ± 8.1% | 73.7 ± 25% | 45.6 ± 1.6% | 47.3 ± 6.8%
UCCCGGAACAUGUAAACCAAA | 99.8 ± 17% | 68 ± 15% | 76.3 ± 16% | 93.1 ± 19%
UCCCGGCACAUGUAAACCAAA | 52.4 ± 7.8% | 40.9 ± 12% | 10.3 ± 3.2% | 49.5 ± 4.2%
UCCCGGGACAUGUAAACCAAA | 98.7 ± 16% | 62.2 ± 7.3% | 89 ± 4.6% | 83.2 ± 10%
UCCCGGUACAUGUAAACCAAA | 105 ± 21% | 40.7 ± 7.5% | 61.9 ± 1.4% | 72 ± 7.5%

Sequence | cell viability (3LL) | cell viability (M565) | cell viability (HeyA8) | cell viability (H460)
UCCCGUAACAUGUAAACCAAA | 104 ± 22% | 74.9 ± 5.9% | 85.3 ± 6.7% | 97.1 ± 22%
UCCCGUCACAUGUAAACCAAA | 65.3 ± 11% | 20 ± 2.6% | 20.4 ± 4.4% | 46 ± 7.6%
UCCCGUGACAUGUAAACCAAA | 93.5 ± 27% | 71.1 ± 17% | 86.8 ± 8.3% | 90.1 ± 7.1%
UCCCGUUACAUGUAAACCAAA | 100 ± 23% | 46.3 ± 11% | 80.7 ± 6.8% | 95.2 ± 11%
UCCCUAAACAUGUAAACCAAA | 109 ± 27% | 75.2 ± 13% | 89.7 ± 6.3% | 52 ± 9.2%
UCCCUACACAUGUAAACCAAA | 82.9 ± 18% | 61.8 ± 14% | 80.1 ± 7.6% | 63.6 ± 7.3%
UCCCUAGACAUGUAAACCAAA | 105 ± 32% | 97.6 ± 9% | 76.8 ± 8.2% | 48.4 ± 7.4%
UCCCUAUACAUGUAAACCAAA | 98.9 ± 34% | 74.1 ± 16% | 82 ± 4.1% | 59.5 ± 10%
UCCCUCAACAUGUAAACCAAA | 103 ± 36% | 76.1 ± 15% | 85.4 ± 13% | 55.8 ± 12%
UCCCUCCACAUGUAAACCAAA | 42.3 ± 3.5% | 24.2 ± 10% | 33.6 ± 1.7% | 33 ± 5.5%
UCCCUCGACAUGUAAACCAAA | 92.9 ± 14% | 58.9 ± 16% | 76.2 ± 1.6% | 46.2 ± 6.5%
UCCCUCUACAUGUAAACCAAA | 75.3 ± 15% | 55.6 ± 5.1% | 44.66 ± 0.21% | 38.1 ± 6.3%
UCCCUGAACAUGUAAACCAAA | 105 ± 18% | 106 ± 23% | 77.5 ± 5.7% | 50.65 ± 0.32%
UCCCUGCACAUGUAAACCAAA | 15.6 ± 5.9% | 37.3 ± 4.5% | 29.1 ± 2.3% | 33.5 ± 4.7%
UCCCUGGACAUGUAAACCAAA | 102 ± 11% | 23.7 ± 6.7% | 52.7 ± 1.4% | 36.7 ± 5.6%
UCCCUGUACAUGUAAACCAAA | 70.3 ± 15% | 37.4 ± 13% | 51 ± 3.7% | 60.9 ± 14%
UCCCUUAACAUGUAAACCAAA | 117 ± 26% | 80.4 ± 15% | 88.8 ± 7.7% | 72 ± 7%
UCCCUUCACAUGUAAACCAAA | 102 ± 24% | 65 ± 18% | 51.8 ± 6.2% | 49.8 ± 5.5%
UCCCUUGACAUGUAAACCAAA | 104 ± 12% | 68.2 ± 10% | 75.5 ± 9.1% | 43 ± 2.8%
